Here are results for 18 sequences from PMC12820563.

The other results are listed elsewhere or left out. The list includes weakly bound sequences.

In the test the target is T1, MBP-FoxP3dN (UniProt Q99JB6).
T1 sequence: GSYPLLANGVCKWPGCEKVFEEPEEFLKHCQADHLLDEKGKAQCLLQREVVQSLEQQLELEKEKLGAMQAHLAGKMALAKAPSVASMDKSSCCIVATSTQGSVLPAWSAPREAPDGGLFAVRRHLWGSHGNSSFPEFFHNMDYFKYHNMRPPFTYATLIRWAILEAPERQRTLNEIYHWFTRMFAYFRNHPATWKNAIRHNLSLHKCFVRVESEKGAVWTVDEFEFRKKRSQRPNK
The test can be described thus: PD-seq (MBP pull-down with sequencing). Conditions: 20 mM Tris-HCl pH 7.5, 100 mM NaCl, 1.5 mM MgCl2, 0.4 uM protein, 0.1 uM dsDNA library, 30 min, room temperature, amylose pull-down; high values mean tight binding; double strand, one strand shown.
On to “GATGATTGTTCTCCCAGCTGATGAATTGTTCGTCTCGAGTAAACAAATTTTCCTAATCTTTCTGTTCAAGCGCCATCTAC”, for which the binding signal (RPM ratio (pull-down/input)) was 0.473.
As for “GATGATTGTTCTCCCAGCTGATGAATTTGGGTAGTCGAGTAAACAAATTTTCCTAATCTTTCTGTTCAAGCGCCATCTAC”, the figure is 0.745; as for “GATGATTGTTCTCCCAGCTGATGAATTTAGTATATCGAGTAAACAAATTTTCCTAATCTTTCTGTTCAAGCGCCATCTAC”, 2.93; as for “GATGATTGTTCTCCCAGCTGATGAATTGCTTTTATCGAGTAAACAAATTTTCCTAATCTTTCTGTTCAAGCGCCATCTAC”, 1.11.
Consider “GATGATTGTTCTCCCAGCTGATGAATTGGCCCCATCGAGTAAACAAATTTTCCTAATCTTTCTGTTCAAGCGCCATCTAC”, for which the binding signal (RPM ratio (pull-down/input)) amounted to 0.303.
Next, “GATGATTGTTCTCCCAGCTGATGAATTAACACCATCGAGTAAACAAATTTTCCTAATCTTTCTGTTCAAGCGCCATCTAC”: 0.564.
“GATGATTGTTCTCCCAGCTGATGAATTTTTTACGTCGAGTAAACAAATTTTCCTAATCTTTCTGTTCAAGCGCCATCTAC”: the binding signal (RPM ratio (pull-down/input)) was 0.246.
Turning to “GATGATTGTTCTCCCAGCTGATGAATTCCAGGTTTCGAGTAAACAAATTTTCCTAATCTTTCTGTTCAAGCGCCATCTAC”, the binding signal (RPM ratio (pull-down/input)) was determined as 0.345.
Consider “GATGATTGTTCTCCCAGCTGATGAATTGTGAGAATCGAGTAAACAAATTTTCCTAATCTTTCTGTTCAAGCGCCATCTAC”, for which the binding signal (RPM ratio (pull-down/input)) was found to be 0.379.
As for “GATGATTGTTCTCCCAGCTGATGAATTGTCAGTATCGAGTAAACAAATTTTCCTAATCTTTCTGTTCAAGCGCCATCTAC”, the figure is 0.551; as for “GATGATTGTTCTCCCAGCTGATGAATTTCTGATCTCGAGTAAACAAATTTTCCTAATCTTTCTGTTCAAGCGCCATCTAC”, 0.233; as for “GATGATTGTTCTCCCAGCTGATGAATTGTACATTTCGAGTAAACAAATTTTCCTAATCTTTCTGTTCAAGCGCCATCTAC”, 0.617.
Turning to “GATGATTGTTCTCCCAGCTGATGAATTGCGAAGCTCGAGTAAACAAATTTTCCTAATCTTTCTGTTCAAGCGCCATCTAC”, the binding signal (RPM ratio (pull-down/input)) turned out to be 0.501.
Next, “GATGATTGTTCTCCCAGCTGATGAATTCAGCCATTCGAGTAAACAAATTTTCCTAATCTTTCTGTTCAAGCGCCATCTAC”: 3.68.
Next, “GATGATTGTTCTCCCAGCTGATGAATTCAGTAGTTCGAGTAAACAAATTTTCCTAATCTTTCTGTTCAAGCGCCATCTAC”: 1.16; “GATGATTGTTCTCCCAGCTGATGAATTTGAAACCTCGAGTAAACAAATTTTCCTAATCTTTCTGTTCAAGCGCCATCTAC”: 0.339.
Turning to “GATGATTGTTCTCCCAGCTGATGAATTTAATATATCGAGTAAACAAATTTTCCTAATCTTTCTGTTCAAGCGCCATCTAC”, the binding signal (RPM ratio (pull-down/input)) was 0.891.
On to “GATGATTGTTCTCCCAGCTGATGAATTGTCGCCTTCGAGTAAACAAATTTTCCTAATCTTTCTGTTCAAGCGCCATCTAC”, for which the binding signal (RPM ratio (pull-down/input)) turned out to be 2.66.
